Results reported in the BET-seq Pho4 binding data (Le et al. 2018).
The list shows a part of the results. The energies were worked out here from pooled read counts, against the library average; single values are noisy.

molecular target: T1, Pho4 (S. cerevisiae) (UniProt P07270); experiment: relative binding free energy (BET-seq); higher = weaker binding; conditions: reference: library average
T1 sequence: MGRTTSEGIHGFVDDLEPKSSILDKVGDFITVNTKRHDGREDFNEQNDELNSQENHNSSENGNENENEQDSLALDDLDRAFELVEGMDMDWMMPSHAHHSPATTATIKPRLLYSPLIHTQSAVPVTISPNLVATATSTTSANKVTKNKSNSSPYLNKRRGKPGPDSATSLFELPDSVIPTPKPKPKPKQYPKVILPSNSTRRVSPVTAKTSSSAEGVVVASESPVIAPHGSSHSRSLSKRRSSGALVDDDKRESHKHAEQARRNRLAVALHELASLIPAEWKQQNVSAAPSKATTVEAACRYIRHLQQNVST

Row | Sequence | relative binding free energy
1 | TAGTTCACGTGGTAAA | 0.17 kcal/mol
2 | TGGGGCACGTGTTTCA | -0.06 kcal/mol
3 | TCGTTCACGTGGAATG | 0.24 kcal/mol
4 | GTAGTCACGTGGTAGC | 0.16 kcal/mol
5 | GTAATCACGTGTGACT | 0.27 kcal/mol
6 | TATTACACGTGAAGGT | 0.23 kcal/mol
7 | TATAGCACGTGGTCAT | -0.2 kcal/mol
8 | CGAAGCACGTGGTGGG | -0.2 kcal/mol
9 | TCAATCACGTGTGGGG | 0.17 kcal/mol
10 | ATGGTCACGTGCAGTT | -0.05 kcal/mol
11 | ATTGTCACGTGCGATT | 0.1 kcal/mol
12 | GAGAGCACGTGAGGTC | 0.24 kcal/mol
13 | TCGGGCACGTGGAATT | 0 kcal/mol
14 | TGGTGCACGTGCTTGA | -0.05 kcal/mol
15 | TCTGACACGTGTTTGA | -0.03 kcal/mol
16 | TTTTTCACGTGCTTAG | 0.27 kcal/mol
17 | TGATTCACGTGAATCG | 0.45 kcal/mol
18 | TTCAGCACGTGTGAGG | -0.02 kcal/mol
19 | ACGTTCACGTGAGTAG | 0.37 kcal/mol
20 | AAGGTCACGTGGTCTG | -0.06 kcal/mol
21 | TTGTTCACGTGACTAT | 0.21 kcal/mol
22 | TGATTCACGTGGGGCG | 0.21 kcal/mol
23 | GACTTCACGTGGATGG | 0.4 kcal/mol

Row | Sequence | relative binding free energy
24 | GAGAACACGTGAGTGT | 0.29 kcal/mol
25 | TCGGACACGTGTGGGT | 0.12 kcal/mol
26 | GGGTCCACGTGAGTTT | 0.33 kcal/mol
27 | TTCGTCACGTGGGAGG | -0.04 kcal/mol
28 | TGATTCACGTGTTACT | 0.34 kcal/mol
29 | ATGTACACGTGGATCG | 0.05 kcal/mol
30 | AATAACACGTGGGATG | -0.07 kcal/mol
31 | GTGTCCACGTGTATGG | 0.03 kcal/mol
32 | TGGGTCACGTGTGAGA | 0.18 kcal/mol
33 | GGAGACACGTGGGTGA | -0.03 kcal/mol
34 | AAGTTCACGTGTCGGA | 0.33 kcal/mol
35 | GTCATCACGTGGGGTG | 0.05 kcal/mol
36 | GGTTACACGTGGCCTG | 0.2 kcal/mol
37 | TTGTTCACGTGGATGG | 0.3 kcal/mol
38 | GGTTCCACGTGGTCGG | -0.04 kcal/mol
39 | GGGAACACGTGGTTTG | 0.06 kcal/mol
40 | ATAAACACGTGGGTGC | -0.04 kcal/mol
41 | GTTCTCACGTGATCTG | 0.45 kcal/mol
42 | CGTGGCACGTGACGTG | -0.09 kcal/mol
43 | TGGCACACGTGAGTGC | 0.25 kcal/mol
44 | TCGGTCACGTGGGGCT | -0.16 kcal/mol
45 | TTTGGCACGTGCTTGC | -0.2 kcal/mol
46 | GTATTCACGTGTTTGG | 0.28 kcal/mol

Row | Sequence | relative binding free energy
47 | GTTAGCACGTGTCAGT | -0.01 kcal/mol
48 | GTTTTCACGTGCAAGT | 0.31 kcal/mol
49 | GGAGACACGTGGTCAG | -0.02 kcal/mol
50 | GTCTGCACGTGGGTTA | -0.12 kcal/mol
51 | TGGATCACGTGTGTCA | 0.25 kcal/mol
52 | GATGGCACGTGCGTTA | -0.02 kcal/mol
53 | TTTATCACGTGTGCCT | 0.13 kcal/mol
54 | CTGGCCACGTGTTGTT | -0.12 kcal/mol
55 | ATGTGCACGTGGATTT | 0.12 kcal/mol
56 | ATTATCACGTGTAAAG | 0.26 kcal/mol
57 | TTTACCACGTGCTGGT | 0.02 kcal/mol
58 | TTTCTCACGTGGTAGA | 0.2 kcal/mol
59 | TATGGCACGTGTTAGC | -0.01 kcal/mol
60 | GCACGCACGTGGTGGG | -0.18 kcal/mol
61 | GGGCGCACGTGAAGCG | 0.19 kcal/mol
62 | GTGAACACGTGGCTGG | 0.18 kcal/mol
63 | CGCGTCACGTGGATTG | 0.15 kcal/mol
64 | TGTTACACGTGGCAAG | 0.07 kcal/mol
65 | TTGTACACGTGGCCGG | 0 kcal/mol
66 | AAAATCACGTGGTGTT | 0.07 kcal/mol
67 | GTGCGCACGTGTAGTA | 0.02 kcal/mol
68 | GGATCCACGTGTGGGC | 0.18 kcal/mol
69 | AGGTTCACGTGTCAGG | 0.23 kcal/mol

Row | Sequence | relative binding free energy
70 | AGTGGCACGTGGCATA | -0.21 kcal/mol
71 | ATATTCACGTGATTAG | 0.32 kcal/mol
72 | GAGCGCACGTGGCGGG | -0.23 kcal/mol
73 | TATATCACGTGAAGGT | 0.29 kcal/mol
74 | GATGTCACGTGCAGTG | 0.11 kcal/mol
75 | ACGGTCACGTGGGCTT | -0.04 kcal/mol
76 | ATGTGCACGTGTAGAA | -0.13 kcal/mol
77 | TGTTTCACGTGAGCTC | 0.32 kcal/mol
78 | CGTGGCACGTGTGCTT | -0.07 kcal/mol
79 | ATTAGCACGTGATGGA | 0.05 kcal/mol
80 | TCTTGCACGTGTGTAT | -0.11 kcal/mol
81 | CGGATCACGTGGGCGT | -0.05 kcal/mol
82 | TAGTTCACGTGGGTAG | 0.14 kcal/mol
83 | ATGTTCACGTGTTATA | 0.32 kcal/mol
84 | TGCGTCACGTGGTTTT | 0.04 kcal/mol
85 | TTGTACACGTGGGGAA | -0.04 kcal/mol
86 | TGTGGCACGTGAATAA | 0.02 kcal/mol
87 | TGTGACACGTGTGTAT | 0.04 kcal/mol
88 | TGTATCACGTGCTCGG | 0.19 kcal/mol
89 | TTAGACACGTGTTTGA | -0.06 kcal/mol
90 | TCTGTCACGTGGGATG | -0.06 kcal/mol
91 | ATGGCCACGTGGAGGC | -0.06 kcal/mol
92 | GCAGGCACGTGTGGGT | -0.06 kcal/mol

Row | Sequence | relative binding free energy
93 | AGTCACACGTGGGTTG | 0.04 kcal/mol
94 | CGGTTCACGTGTTCGG | 0.27 kcal/mol
95 | TCGTGCACGTGGTAGG | -0.03 kcal/mol
96 | TGACGCACGTGGTAGG | -0.2 kcal/mol
97 | CGATTCACGTGTGGTG | 0.29 kcal/mol
98 | TTCGTCACGTGATAAT | 0.19 kcal/mol
99 | TAGGGCACGTGGGGAG | -0.31 kcal/mol
100 | CGTGGCACGTGGGATA | -0.27 kcal/mol
101 | TATGACACGTGAAATT | 0.36 kcal/mol
102 | ACGTTCACGTGGAGGA | 0.24 kcal/mol
103 | AGTAGCACGTGTGGAG | 0 kcal/mol
104 | GGTTTCACGTGCGTTT | 0.21 kcal/mol
105 | GTGGCCACGTGGTAGT | -0.03 kcal/mol
106 | TGATGCACGTGATTCT | 0.12 kcal/mol
107 | TGGAGCACGTGTACTG | 0.08 kcal/mol
108 | TTATACACGTGTGGGG | 0.08 kcal/mol
109 | AGCGGCACGTGGGTGA | -0.27 kcal/mol
110 | TTGTGCACGTGTTGCT | -0.06 kcal/mol
111 | CGATGCACGTGTGCGG | -0.05 kcal/mol
112 | CTGTGCACGTGAGTGT | -0.07 kcal/mol
113 | CAGAGCACGTGTGGGG | -0.04 kcal/mol
114 | AGTTGCACGTGGTCTA | -0.11 kcal/mol
115 | ATCAGCACGTGGGTGT | -0.2 kcal/mol
